Consider 1 molecule from the supplement of paper PMC8728848.

This is one part of the list.

Holding throughout (test): glycan array binding signal (z-score within array); higher = stronger binding
Conditions in all cases: glycan notation: IUPAC condensed, linker removed; mutation: E41G

Assay [1] deals with Neu5Ac(a2-3)Gal(b1-4)GlcNAc(b1-3)Gal(b1-4)GlcNAc(b1-2)Man(a1-3)[Neu5Ac(a2-3)Gal(b1-4)GlcNAc(b1-3)Gal(b1-4)GlcNAc(b1-2)Man(a1-6)]Man(b1-4)GlcNAc(b1-4)GlcNAc. The essentials: (§1)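 The binding signal is a Z-score computed within each array and averaged over linkers. Arrays of the same protein sequence at different concentrations or buffers were also averaged together. Data originate from 3228 arrays in the Consortium for Functional Glycomics database, kept only where the protein sequence was available.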

In assay [2] the target is Neu5Ac(a2-3)Gal(b1-4)GlcNAc(b1-3)Gal(b1-4)GlcNAc(b1-3)Gal(b1-4)GlcNAc. The essentials: as §1
The target in assay [3] is Neu5Ac(a2-3)Gal(b1-4)GlcNAc(b1-3)Gal(b1-4)GlcNAc(b1-3)Gal(b1-4)GlcNAc(b1-2)Man(a1-3)[Neu5Ac(a2-3)Gal(b1-4)GlcNAc(b1-3)Gal(b1-4)GlcNAc(b1-3)Gal(b1-4)GlcNAc(b1-2)Man(a1-6)]GalNAc. The essentials: as §1
Assay [4] deals with Neu5Ac(a2-3)Gal(b1-4)GlcNAc(b1-3)Gal(b1-4)GlcNAc(b1-3)GalNAc. The essentials:
as §1

Assay [5] deals with Neu5Ac(a2-3)Gal(b1-4)GlcNAc(b1-3)Gal(b1-4)GlcNAc(b1-3)[Neu5Ac(a2-3)Gal(b1-4)GlcNAc(b1-3)Gal(b1-4)GlcNAc(b1-6)]GalNAc. The essentials:
as §1

For assay [6], the target named is Neu5Ac(a2-3)Gal(b1-4)GlcNAc(b1-3)Gal(b1-4)GlcNAc(b1-6)[Gal(b1-3)]GalNAc. The essentials:
as §1

For assay [7], the target named is Neu5Ac(a2-3)Gal(b1-4)GlcNAc(b1-3)Gal(b1-4)[Fuc(a1-3)]GlcNAc. The essentials: as §1
The target of assay [8] is Neu5Ac(a2-3)Gal(b1-4)GlcNAc(b1-3)GalNAc. The essentials:
as §1

For assay [9], the target named is Neu5Ac(a2-3)Gal(b1-4)GlcNAc(b1-3)[Neu5Ac(a2-3)Gal(b1-4)GlcNAc(b1-6)]GalNAc. The essentials:
as §1

Assay [10] deals with Neu5Ac(a2-3)Gal(b1-4)GlcNAc(b1-6)GalNAc. The essentials:
as §1

Assay [11] has as its target Neu5Ac(a2-3)Gal(b1-4)GlcNAc(b1-6)[Gal(b1-3)]GalNAc. The essentials:
as §1

For assay [12], the target named is Neu5Ac(a2-3)Gal(b1-4)GlcNAc(b1-6)[Neu5Ac(a2-3)Gal(b1-3)]GalNAc. The essentials: as §1
In assay [13] the target is Neu5Ac(a2-3)Gal(b1-4)GlcNAc6S. The essentials: as §1
Assay [14] concerns the target Neu5Ac(a2-3)Gal(b1-4)[Fuc(a1-3)]GlcNAc. The essentials:
as §1

Assay [15] has as its target Neu5Ac(a2-3)Gal(b1-4)[Fuc(a1-3)]GlcNAc(b1-2)Man. The essentials:
as §1

Assay [16] deals with Neu5Ac(a2-3)Gal(b1-4)[Fuc(a1-3)]GlcNAc(b1-3)Gal. The essentials: as §1
In assay [17] the target is Neu5Ac(a2-3)Gal(b1-4)[Fuc(a1-3)]GlcNAc(b1-3)Gal(b1-4)GlcNAc. The essentials:
as §1

Assay [18] has as its target Neu5Ac(a2-3)Gal(b1-4)[Fuc(a1-3)]GlcNAc(b1-3)Gal(b1-4)[Fuc(a1-3)]GlcNAc(b1-3)Gal(b1-4)[Fuc(a1-3)]GlcNAc. The essentials: as §1
Assay [19] addresses Neu5Ac(a2-3)Gal(b1-4)[Fuc(a1-3)]GlcNAc(b1-3)GalNAc. The essentials: as §1
Assay [20] deals with Neu5Ac(a2-3)Gal(b1-4)[Fuc(a1-3)]GlcNAc(b1-6)[Gal(b1-3)]GalNAc. The essentials: as §1
Assay [21] concerns the target Neu5Ac(a2-3)Gal(b1-4)[Fuc(a1-3)]GlcNAc(b1-6)[Neu5Ac(a2-3)Gal(b1-3)]GalNAc. The essentials:
as §1

For assay [22], the target named is Neu5Ac(a2-3)Gal(b1-4)[Fuc(a1-3)]GlcNAc6S. The essentials: as §1
The target of assay [23] is Neu5Ac(a2-3)Gal6S(b1-4)GlcNAc. The essentials:
as §1

B1: CVN-E41G (protein)
chain: MHHHHHHENLYFQSGNFSQACYNSAIQGSVLTSTCIRTNGGYNTSSIDLNSVIGNVDGSLKWQGSNFIETCRNTQLAGSSELAAECKTRAQQFVSTKINLDDHIAAIDGTLKYE
Take B1: the “glycan array binding signal (z-score)” value in assay [1] was -0.059; in assay [2] it was -0.156; in assay [3] it was 0.008; in [4] it was -0.153; in assay [5], -0.126; in [6], -0.146. The “glycan array binding signal (z-score)” value in assay [7] was -0.177; in assay [8], -0.153; in assay [9], -0.113; in assay [10], -0.097; in assay [11] it was 0.198; in [12] it was -0.174. Besides, the “glycan array binding signal (z-score)” value is -0.145 in [13]; -0.179 in [14]; -0.128 in [15]; -0.183 in assay [16]; -0.158 in assay [17]; -0.063 in [18]. Besides, the “glycan array binding signal (z-score)” value in [19] is -0.13; in [20], -0.135; in assay [21], -0.109; in assay [22], -0.157; in assay [23] it was -0.171.
